Results from PMC9356023.
Read-outs that look alike come from different tables or passages of the source. These are yes or no findings as the source states them, for the method shown. In cells and extracts the contact can be indirect. Some binding calls cover weakened binding; strength is not graded here. For some assays here: Sequences can lack the tags named with a protein.

Protein sequences, listed by entry. Tags and fused reporters are not part of them.
UniProt O60678: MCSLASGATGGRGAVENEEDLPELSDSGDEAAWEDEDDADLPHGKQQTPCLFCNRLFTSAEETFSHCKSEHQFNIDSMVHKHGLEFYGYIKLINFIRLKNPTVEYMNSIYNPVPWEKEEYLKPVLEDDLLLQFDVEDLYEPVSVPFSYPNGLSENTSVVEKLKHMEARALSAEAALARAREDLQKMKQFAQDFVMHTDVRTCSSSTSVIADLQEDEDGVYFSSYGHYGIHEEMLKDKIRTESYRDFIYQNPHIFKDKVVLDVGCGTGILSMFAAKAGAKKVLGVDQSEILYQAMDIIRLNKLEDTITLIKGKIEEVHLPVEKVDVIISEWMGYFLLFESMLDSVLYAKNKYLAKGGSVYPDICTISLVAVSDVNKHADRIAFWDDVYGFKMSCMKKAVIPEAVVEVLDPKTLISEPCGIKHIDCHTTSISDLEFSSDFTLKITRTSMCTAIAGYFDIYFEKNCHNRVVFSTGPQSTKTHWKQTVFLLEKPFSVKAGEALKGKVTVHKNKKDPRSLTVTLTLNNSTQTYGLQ
UniProt Q6NZB1: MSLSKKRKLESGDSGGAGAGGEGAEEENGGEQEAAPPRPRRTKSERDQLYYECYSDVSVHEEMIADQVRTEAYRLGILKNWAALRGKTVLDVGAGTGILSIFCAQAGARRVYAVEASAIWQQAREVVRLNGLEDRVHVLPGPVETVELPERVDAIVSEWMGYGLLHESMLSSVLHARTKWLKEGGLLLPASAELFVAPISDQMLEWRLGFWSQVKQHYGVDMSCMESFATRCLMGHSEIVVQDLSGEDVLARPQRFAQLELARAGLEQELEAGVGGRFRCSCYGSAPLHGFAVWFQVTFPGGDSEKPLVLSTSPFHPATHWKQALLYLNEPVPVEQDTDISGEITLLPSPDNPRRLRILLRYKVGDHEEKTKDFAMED
UniProt Q9NR22: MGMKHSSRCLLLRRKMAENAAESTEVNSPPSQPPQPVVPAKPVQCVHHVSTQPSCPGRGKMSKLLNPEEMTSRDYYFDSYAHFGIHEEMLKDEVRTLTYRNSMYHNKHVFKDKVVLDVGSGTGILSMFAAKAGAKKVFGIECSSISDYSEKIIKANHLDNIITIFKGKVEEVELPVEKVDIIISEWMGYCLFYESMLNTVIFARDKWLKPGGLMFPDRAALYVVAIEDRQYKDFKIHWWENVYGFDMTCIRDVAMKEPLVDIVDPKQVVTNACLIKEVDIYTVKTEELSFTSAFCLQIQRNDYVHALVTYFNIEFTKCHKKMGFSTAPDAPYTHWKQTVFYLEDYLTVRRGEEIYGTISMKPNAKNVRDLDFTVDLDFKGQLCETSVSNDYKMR
UniProt Q9JIF0: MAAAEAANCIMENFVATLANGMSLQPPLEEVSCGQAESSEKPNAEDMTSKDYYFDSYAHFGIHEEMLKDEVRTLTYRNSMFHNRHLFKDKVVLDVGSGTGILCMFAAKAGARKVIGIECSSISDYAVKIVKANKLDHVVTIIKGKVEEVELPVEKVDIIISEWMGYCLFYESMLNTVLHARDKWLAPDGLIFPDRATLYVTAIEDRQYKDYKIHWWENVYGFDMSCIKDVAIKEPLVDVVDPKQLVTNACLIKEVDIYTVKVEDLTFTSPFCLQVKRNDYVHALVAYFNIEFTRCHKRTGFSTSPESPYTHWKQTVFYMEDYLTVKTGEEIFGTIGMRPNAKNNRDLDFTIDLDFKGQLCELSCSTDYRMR

Experiments:
[1] = biological target: vascular endothelial growth factor receptor-2 (VEGFR-2), wild type (UniProt P35918); assay: co-IP; HEK-293 cells expressing VEGFR-2 transfected with c-Myc-tagged PRMT constructs, 48 h; with or without VEGF; whole cell lysate immunoprecipitated with anti-VEGFR-2 antibody, protein-A Sepharose, washed 4X with lysis buffer containing 1% SDS; blot with anti-c-Myc antibody
[2] = biological target: GST-Src-SH2 (UniProt P12931); assay: pull-down; GST-Src-SH2 immobilised on Glutathione Sepharose beads, incubated with whole cell lysates of serum-starved HEK-293 cells expressing wild-type or mutant VEGFR-2, unstimulated or stimulated with VEGF for 10 min; 3-4 h at 4°C; blot with anti-VEGFR-2 antibody; only the target purified
[3] = biological target: GST-PRMT3 (UniProt O60678); assay: pull-down; GST-PRMTs immobilised on glutathione Sepharose beads, incubated with whole cell lysate of HEK-293 cells expressing VEGFR-2, 3-4 h at 4°C; blot with anti-VEGFR-2 antibody; only the target purified
[4] = biological target: GST-PRMT6 (UniProt Q6NZB1); assay: as above
[5] = biological target: T1, GST-PRMT7 (UniProt Q9NVM4); assay: as above
T1 sequence: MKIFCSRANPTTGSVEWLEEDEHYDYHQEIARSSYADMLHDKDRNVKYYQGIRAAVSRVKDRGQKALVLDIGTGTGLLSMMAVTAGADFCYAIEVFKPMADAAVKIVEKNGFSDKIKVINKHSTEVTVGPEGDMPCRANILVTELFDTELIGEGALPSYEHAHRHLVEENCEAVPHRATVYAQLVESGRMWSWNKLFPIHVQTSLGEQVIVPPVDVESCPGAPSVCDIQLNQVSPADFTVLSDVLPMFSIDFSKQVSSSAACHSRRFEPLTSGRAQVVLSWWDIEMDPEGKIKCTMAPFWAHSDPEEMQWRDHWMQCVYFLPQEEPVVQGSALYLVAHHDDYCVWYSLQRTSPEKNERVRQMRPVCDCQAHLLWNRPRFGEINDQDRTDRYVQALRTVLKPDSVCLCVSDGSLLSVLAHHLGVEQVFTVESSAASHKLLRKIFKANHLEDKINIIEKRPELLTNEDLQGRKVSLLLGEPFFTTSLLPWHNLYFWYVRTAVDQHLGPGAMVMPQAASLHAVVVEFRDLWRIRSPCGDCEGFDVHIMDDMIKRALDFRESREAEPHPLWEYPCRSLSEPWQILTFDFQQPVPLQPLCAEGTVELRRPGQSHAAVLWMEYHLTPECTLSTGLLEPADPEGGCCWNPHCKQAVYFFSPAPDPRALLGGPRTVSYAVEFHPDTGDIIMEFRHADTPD

[6] = biological target: GST-PRMT8 (UniProt Q9NR22); assay: as above
[7] = biological target: GST-Src-SH2 (UniProt P12931); assay: pull-down; GST-Src-SH2 Glutathione Sepharose beads preincubated with Y820 unphosphorylated or Y820 phosphorylated peptide, then whole cell lysate of HEK-293 cells expressing wild-type VEGFR-2, unstimulated or stimulated with VEGF for 10 min; Western blot; only the target purified
[8] = biological target: vascular endothelial growth factor receptor-2 (VEGFR-2), wild type (UniProt P35918); assay: co-IP; HEK-293 cells expressing VEGFR-2 transfected with c-Myc-tagged PRMT constructs, 48 h; with or without VEGF; whole cell lysate immunoprecipitated with anti-VEGFR-2 antibody, protein-A Sepharose, washed 4X with lysis buffer containing 1% SDS; blot with anti-c-Myc antibody; remark: listed apart in the source

“PRMT1, C-terminus c-Myc-tagged (from UniProt Q9JIF0 1-371) (enzyme)” was tested, and the binding [1] was “binds”.

For “arginine 817 mutant VEGFR-2 (A817/VEGFR-2) (from UniProt P35918 20-1345) (receptor)”, the binding [2] was “binds”.

For “PRMT6, C-terminus c-Myc-tagged (from UniProt Q6NZB1 1-378) (enzyme)”, the binding [1] was “binds”.

In the case of “vascular endothelial growth factor receptor-2 (VEGFR-2), wild type (from UniProt P35918 20-1345)”, the binding [3] is reported as “binds weakly”, the binding [4] is reported as “binds weakly” and the binding [5] is reported as “binds weakly”. For the same molecule, the binding [6] was “binds weakly”, the binding [7] was “binds” and the binding [2] was “binds”.

“tyrosine 820 mutant VEGFR-2 (F820/VEGFR-2) (from UniProt P35918 20-1345) (receptor)” was tested, and the binding [2] was “no binding”.

B1: PRMT4 N-terminal alone (PRMT4-1-142) (domain or fragment, UniProt Q9WVG6 1-142)
chain: MAAAAATAVGPGAGSAGVAGPGGAGPCATVSVFPGARLLTIGDANGEIQRHAEQQALRLEVRAGPDAAGIALYSHEDVCVFKCSVSRETECSRVGRQSFIITLGCNSVLIQFATPHDFCSFYNILKTCRGHTLERSVFSERT
In the case of B1, the binding [8] is reported as “binds”.
